Molecules are shown by their SMILES. The campaign covered roughly 43,000 compounds. About 200 (0.47%) were called active. About 12% were inconclusive and are not listed. The call rests on the fitted dose curve; in most records, active means well fitted cell-killing curve with a large enough effect; inconclusive means small, poorly fitted or top-dose-only effect, or effect the other way; inactive means flat fitted curve, though single readings scatter. Some of the results follow.

We go through 93 compounds from PubChem BioAssay AID1508642 (National Center for Advancing Translational Sciences (NCATS), 2021).
On the % scale 0 is the no-effect control and ±100 the full control effect; potency means the concentration at half of the fitted maximal effect.

A short description of the assay: Cell viability qHTS assay in S16 Pmp22-F2sN cells. Further: nearly all actives have a fitted effect of over 65% in size. As to conditions: S16 Pmp22-F2sN Schwann cells viability, CellTiter-Glo, 24 h; series mostly up to 57.5 µM; activity change, negative = cytotoxicity: at the top concentration. The procedure, abridged: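 Used to flag compounds lowering reporter output through toxicity, this quantitative HTS measures ATP-based CellTiter-Glo luminescence in S16 Pmp22-F2sN Schwann cells after 24 h compound exposure at 37C.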
Consider `COc1cc(NC(=O)NC(C)c2c(-n3cccc3)sc3c2CCCC3)cc(OC)c1OC` (stereo not drawn), for which the “activity change, negative = cytotoxicity” value is inactive: -7.85%.
Still for that read-out and setting: next, `Oc1c(C(c2ccccc2F)N2CCN(Cc3ccccc3)CC2)sc2nc(-c3ccco3)nn12` (stereo not drawn): inactive: 1.83%; `Cc1c(C(=O)N2CCC(c3nc4ccccc4s3)CC2)oc2ccc(Cl)cc12`: inactive: -0.788%; `COc1ccccc1N1CCN(S(=O)(=O)c2c(C)sc3ncn(CC(=O)N(C)c4ccc(Cl)cc4)c(=O)c23)CC1`: inactive: 0.582%.
Still for that read-out and setting: next, `CCNC(=O)c1c(NC(=O)Cc2coc3cc(C)cc(C)c23)sc2c1CCCC2`: inactive: -0.369%; `COCCn1c(=NC(=O)c2ccc3c(c2)OCCO3)sc2cc(C(=O)OC)ccc21`: inactive: -11.9%.
Take `COc1ccc(C(=O)OC2=C(C(=O)c3ccccc3)N(C)S(=O)(=O)c3ccccc32)cc1OC`: the “activity change, negative = cytotoxicity” value is inactive: -18.8%.
Same read-out and setting: next, `Cc1ccc2c(CC(=O)Nc3ccc(S(=O)(=O)N4CCCCC4)cc3)coc2c1`: inactive: 1.9%; `Cc1ccc(Cl)cc1NC(=O)Cn1c(=O)oc2cc(S(=O)(=O)N3CCCC3)ccc21`: inactive: -2.82%; `Cc1ccc(-n2ncc3c(Nc4cccc(C)c4C)ncnc32)cc1`: inactive: 2.18%.
As for `CCOc1ccccc1N(C)C(=O)C1CCCN(c2ncnc3c2nc2n3CCCCC2)C1` (stereo not drawn), the “activity change, negative = cytotoxicity” value was inactive: 2.97%.
On the same count and under the same terms, next, `Cc1cc(C)c2c(=O)nc(SCc3ccccc3C)n(C3CC3)c2n1`: inactive: -6.46%.
As to `Cc1ccc(NC(=O)c2cc(-c3ccc(Br)s3)nc3ccccc23)cc1F`, the Potency is active: 31.6 µM.
In the case of `CCOc1ccc(CCNC(=O)CCCn2c(=O)c3cccn3c3ccccc32)cc1`, the “activity change, negative = cytotoxicity” value was inactive: 3.7%.
On the same count and under the same terms, under `COc1ccc(C(=O)Nc2nnc(SCc3cc(=O)c4cc(C)cc(C)c4[nH]3)s2)cc1` stands inactive: -7.79%; under `Cn1c(=O)c2c(nc(SCC(=O)Nc3ccccc3F)n2Cc2ccc(Cl)cc2)n(C)c1=O`, inactive: -1.43%; under `CCc1ccccc1NC(=O)CCNS(=O)(=O)c1ccc2c(c1)CCN2C(=O)C1CC1`, inactive: 0.667%.
The same measure, in the same setting: next, `Cc1ccc(-n2ncc3c(NCCC4=CCCCC4)ncnc32)cc1`: inactive: 10.9%.
Still for that read-out and setting: next, `Cc1ccc(Cl)cc1NC(=O)C(C)n1nc(-c2ccccc2)ccc1=O` (stereo not drawn): inactive: -13.8%; `Cc1ccc(Cl)cc1N1CCN(C(=O)Cn2cnc3sc(C)c(S(=O)(=O)N4CCC(C)CC4)c3c2=O)CC1`: inactive: 1.6%.
With `COC(=O)c1scc(-c2ccc(C)cc2)c1S(=O)(=O)N1CCN(c2ccc(C(C)=O)cc2)CC1`, the “activity change, negative = cytotoxicity” value is inactive: 11.2%.
The same measure, in the same setting: next, `Cc1nc2nc(NCc3ccc(Cl)cc3)[nH]n2c(=O)c1Cc1ccccc1`: inactive: -0.677%; `CCOC(=O)c1c(C)oc2nc(C)nc(NCc3ccc(F)cc3)c12`: inactive: -1.38%.
Still for that read-out and setting: under `CCCn1c(CCC(=O)Nc2ccc(OCC)cc2)nc2cccnc21` stands inactive: 8.55%.
Consider `CC1CCc2c(sc(NC(=O)C3c4ccccc4Oc4ccccc43)c2C#N)C1` (stereo not drawn), for which the “activity change, negative = cytotoxicity” value is inactive: 11.5%.
Still for that read-out and setting: under `Cc1ccc(-n2c(=O)c3c(C)c(C)sc3n(CC(=O)NCc3ccccc3)c2=O)cc1C` stands inactive: 4.63%; under `Cc1cc(C)cc(-n2c(SCC(=O)N3CCOCC3)nc3c([nH]c4ccccc43)c2=O)c1`, inactive: 7.98%.
Take `Cc1ccc(CCNS(=O)(=O)c2c(C)nc3sc(C)c(C)n3c2=O)cc1`: the “activity change, negative = cytotoxicity” value was inactive: 9.78%.
Still for that read-out and setting: under `Cc1ccc(CNC(=O)c2ccc(CSCc3cccc(C)c3)o2)cc1` stands inactive: 3.72%; under `CC1CCN(S(=O)(=O)c2ccc3c(c2)N(CC(=O)NCCc2ccccc2)C(=O)CO3)CC1`, inactive: 21.8%; under `COc1cccc(NC(=O)c2ccc3c(c2)CCN3S(C)(=O)=O)c1`, inactive: 17.3%.
Still for that read-out and setting: next, `Cc1noc(-c2ccc(NC(C)c3ccccc3)c([N+](=O)[O-])c2)n1` (stereo not drawn): inactive: -0.587%; `COc1ccccc1NC(=O)c1ccc(CN2C(=O)C(C)=C(c3ccc(C)c(C)c3)S2(=O)=O)cc1`: inactive: -5.21%; `CC1(c2ccccc2)CC(C)(C)N(C(=O)c2cccc(Cl)c2)c2ccccc21` (stereo not drawn): inactive: 12.6%.
Still for that read-out and setting: next, `Cc1cc2nn(-c3ccc(F)cc3)nc2cc1NC(=O)c1cccc2c(Cl)cccc12`: inactive: 13.8%.
Take `CCOc1cc2c(cc1OCC)C(CC(=O)O)N(C(=O)Nc1ccccc1C(F)(F)F)CC2` (stereo not drawn): the “activity change, negative = cytotoxicity” value is inactive: 9.85%.
On to `Cc1cc(C)nc(-n2nc(C)c3c2NC(=O)CC3c2cccc(O)c2)n1` (stereo not drawn), for which the “activity change, negative = cytotoxicity” value was inactive: -5.61%.
Still for that read-out and setting: next, `COc1cc(OC)c(NC(=O)Nc2cccc(OCc3cc(=O)n4ccccc4n3)c2)cc1Cl`: inactive: 4.1%; `CCn1c(C)c(C)c2cc(C(=O)NCc3ccc(F)cc3)ccc21`: inactive: 19.9%; `COc1ccc(-n2cc(-c3ccccc3)c3c(Nc4ccc(OC)c(OC)c4)ncnc32)cc1`: inactive: -22%.
On the same count and under the same terms, under `CCOC(=O)c1ccc2c(c1)N(Cc1ccc(F)cc1Cl)C(=O)c1ccccc1S2(=O)=O` stands inactive: 0.219%.
As to `CCOC(=O)c1c(C)[nH]c(CCC(=O)NC(C)c2ccccc2)c1C` (stereo not drawn), the “activity change, negative = cytotoxicity” value was inactive: 17.6%.
Turning to `CCN(C(=O)c1sc2nc3n(c(=O)c2c1C)CCCCC3)c1ccc(OC)cc1`, the “activity change, negative = cytotoxicity” value is inactive: 14%.
On the same count and under the same terms, next, `CCOC(=O)c1cn(CC(=O)Nc2ccc(OC)cc2OC)nn1`: inactive: 7.22%.
Still for that read-out and setting: under `Fc1ccc(Nc2ncnc3onc(-c4ccc(Cl)cc4)c23)cc1Cl` stands inactive: -20.8%; under `O=C(C1CCCN(S(=O)(=O)c2ccc(Br)s2)C1)N1CCN(c2ccccc2F)CC1` (stereo not drawn), inactive: 12.5%.
Same read-out and setting: next, `CCOc1ccc(CCNC(=O)c2ccc3c(c2)N(Cc2ccc(C)cc2)CCS3)cc1`: inactive: 4.4%.
With `CC(C)Cc1ccc(S(=O)(=O)N2CCN(Cc3noc(CCC(=O)N4CCCCC4)n3)CC2)cc1`, the “activity change, negative = cytotoxicity” value is inactive: -6.81%.
On the same count and under the same terms, next, `CC1=C(c2ccc(F)cc2)S(=O)(=O)N=C1N1CCC(C(=O)NCCc2ccccc2C)CC1`: inactive: -1.29%; `COc1ccc(C2C(C(=O)Nc3ccccc3)=C(C)Nc3nc(SCC(=O)c4ccc(C)cc4)nn32)cc1` (stereo not drawn): inactive: 3.71%.
As for `Cc1c(C(=O)Nc2ccc(-n3c(C)nc4ccccc4c3=O)cc2)cccc1[N+](=O)[O-]`, the “activity change, negative = cytotoxicity” value is inactive: -0.0679%.
Still for that read-out and setting: next, `Cc1ccc(Cl)cc1NC(=O)Cn1c(=O)n(CCC(=O)NCc2ccc3c(c2)OCO3)c(=O)c2sccc21`: inactive: 6.41%.
On to `COC(=O)C(NC(=O)CCc1c(C)nc2c(-c3ccccc3)c(C)nn2c1C)C(C)C` (stereo not drawn), for which the “activity change, negative = cytotoxicity” value was inactive: 0.8%.
With `CCCC(=O)Nc1nnc(S(=O)(=O)N2CCCCCC2)s1`, the “activity change, negative = cytotoxicity” value was inactive: -8.72%.
Same read-out and setting: under `Cc1ccc2c(=O)cc(C(=O)N(Cc3ccc(N(C)C)cc3)C3CCS(=O)(=O)C3)oc2c1` (stereo not drawn) stands inactive: -3.29%; under `CCCN1CCN(CCCNC(=O)Cn2nc(CC)n3c(cc4occc43)c2=O)CC1`, inactive: -1.4%.
For the compound `Cc1cc(NC(=O)N(C)CCc2c(C)nn(C)c2C)ccc1Br`, the “activity change, negative = cytotoxicity” value is inactive: 8.56%.
As for `CSc1ccc(CCNC(=O)CN2C(=O)c3cccnc3Oc3ccc(C)cc32)cc1`, the “activity change, negative = cytotoxicity” value is inactive: 3.36%.
On the same count and under the same terms, under `Cc1cc(F)ccc1NS(=O)(=O)c1c(C)nc2scc(C)n2c1=O` stands inactive: 0.889%.
Still for that read-out and setting: under `CCc1cccc(C)c1NC(=O)CSc1nc2ccccc2nc1N1CCOCC1` stands inactive: -15.6%; under `CC1(C)O[C@H]2[C@@H](O1)[C@@H](C(=O)Nc1ccc(F)c(F)c1)O[C@@H]1OC(C)(C)O[C@@H]12`, inactive: 11.6%.
Still for that read-out and setting: under `COc1cc(C2C(C(=O)Nc3ccc(C)cc3C)=C(C)Nc3nc4ccccc4n32)cc(OC)c1OC` (stereo not drawn) stands inactive: 2.36%; under `Cc1ccc(S(=O)(=O)N(CCc2ccccc2)CC(=O)Nc2cc(C)ccc2C)cc1`, inactive: -3.3%; under `CN(C)S(=O)(=O)c1ccc(C(=O)NC2CC(=O)N(c3ccc4c(c3)OCCO4)C2)cc1` (stereo not drawn), inactive: -4.72%.
With `CCOC(=O)c1cc(-c2ccc(C)cc2)n(CCC(=O)Nc2ccc(C(C)C)cc2)c1C`, the “activity change, negative = cytotoxicity” value is inactive: -28.6%.
Same read-out and setting: under `CCOc1ccccc1NC(=O)c1nc2nc(C)cc(C(F)F)n2n1` stands inactive: 17.6%; under `O=C(NC1CC(=O)N(c2ccc(Cl)cc2)C1)c1ccc2c(c1)OCO2` (stereo not drawn), inactive: 0.971%; under `COc1cccc(N2CCN(C(=O)C3CCN(S(=O)(=O)c4c(C)noc4C)CC3)CC2)c1`, inactive: 2.64%.
On the same count and under the same terms, next, `Cc1cccc(NC(=O)Cn2nnc(C(=O)Nc3ccccc3Br)c2N)c1C`: inactive: 7.03%.
For `Cn1cc(C(=O)NCc2ccccc2)c(=O)c2cc(S(=O)(=O)N3CCOCC3)ccc21`, the “activity change, negative = cytotoxicity” value was inactive: 2.89%.
On the same count and under the same terms, next, `Cc1ccc(F)c(NC(=O)Nc2ccc3snnc3c2)c1`: inactive: -0.325%.
On the same count and under the same terms, next, `COc1ccc(OC)c(NS(=O)(=O)c2ccc3[nH]c4c(c3c2)CCCCC4)c1`: inactive: -0.788%; `O=C(NCCN1CCN(c2cccc(Cl)c2)CC1)C1COc2ccccc2C1` (stereo not drawn): inactive: -0.686%.
Consider `Cc1cccc(CNC(=O)Cn2ccc3cc(S(=O)(=O)N4CCCC4)ccc32)c1`, for which the “activity change, negative = cytotoxicity” value was inactive: -4.38%.
The same measure, in the same setting: next, `CCOc1ccc(CCNC(=O)c2cn(CC)c3ccc(S(=O)(=O)N4CCCCCC4)cc3c2=O)cc1OCC`: inactive: -19.6%; `CC(=O)N1CCCc2cc(S(=O)(=O)N(C)CC(=O)Nc3cccc(C)c3C)ccc21`: inactive: -13.8%.
For the compound `O=C1c2[nH]nc(-c3ccccc3O)c2C(c2cccc(Cl)c2)N1Cc1cccnc1` (stereo not drawn), the “activity change, negative = cytotoxicity” value is inactive: -0.379%.
Same read-out and setting: next, `Cc1cccc(NC(=O)Cn2c(=O)nc(-c3ccccc3)c3ccccc32)c1C`: inactive: 26.3%.
`O=C(c1ccc(CSc2nc3ccncc3n2Cc2cccc(F)c2)cc1)N1CCCCC1`: the “activity change, negative = cytotoxicity” value is inactive: -14%.
On the same count and under the same terms, under `CCOc1ccc(N(CC(=O)NCc2ccc(C)cc2)S(=O)(=O)c2c(C)noc2C)cc1` stands inactive: 10%; under `CCOC(=O)c1c(C)oc2ccc(N(C(=O)c3ccncc3)S(=O)(=O)c3ccc(Br)cc3)cc12`, inactive: -19%.
The same measure, in the same setting: next, `CC1=C(c2ccc(C(C)C)cc2)S(=O)(=O)NC1=NCc1ccccc1Br`: inactive: -8.57%.
Same read-out and setting: next, `COc1ccc(C)cc1NC(=O)C1CCCN(S(=O)(=O)c2ccc3[nH]c(=O)ccc3c2)C1` (stereo not drawn): inactive: 7.31%; `COc1cc(NC(=O)CN2C(=O)CN(C)C(=O)c3ccccc32)cc(OC)c1OC`: inactive: 1.9%.
As to `CCOc1ccc(CCNC(=O)Cn2ncc3c(=O)oc4ccc(C)cc4c32)cc1`, the “activity change, negative = cytotoxicity” value was inactive: 1.81%.
For the compound `CCOC(=O)c1c(C)[nH]c(C)c1S(=O)(=O)N1CCC(C(=O)Nc2ccc(C)cn2)CC1`, the “activity change, negative = cytotoxicity” value was inactive: 13.2%.
Still for that read-out and setting: next, `CCn1c2ccccc2c2cc(NC(=O)COc3cccc(C)c3)ccc21`: inactive: 4.28%; `CCOc1cc2[nH]c(=O)n(CCCC(=O)N3CCN(c4ccc(OC)cc4)CC3)c(=O)c2cc1OCC`: inactive: 1.59%; `CNC(=O)C1CCC(Cn2c(=O)c3sccc3n(CC(=O)Nc3ccc(C)c(F)c3)c2=O)CC1` (stereo not drawn): inactive: -0.837%.
Same read-out and setting: under `Cc1ccc(NC(=O)CN2C(=O)CCn3nc(-c4cccn4C)cc32)cc1` stands inactive: -3.86%; under `COCCCNc1nc2c(S(=O)(=O)c3ccc(C)c(C)c3)nnn2c2ccc(Cl)cc12`, inactive: -19.1%; under `CCOc1ccc(OCC)c(NC(=O)CCC(=O)N2CCOc3ccccc32)c1`, inactive: -6.72%.
Still for that read-out and setting: under `CSc1ncc(C(=O)Nc2ccc(F)cc2F)c(-c2ccccc2)n1` stands inactive: 15.3%.
